Sequences with one replicate were seen in a single cluster, so their values are uncertain.
System: ATP
Assay: switch fluorescence ratio, 500 uM ATP over buffer (Cy3 cluster intensity, sum of 5 cycles each) (fold (ratio)); higher = stronger signal-on switching upon ATP binding; sequences stand for … in TCGTCGGCAGCGTCAGATGTGTATAAGAGACAGTTTTTTTTTTTTTTTTTTTTTTTTT…TC
Settings: aptamer strand: ATP DNA aptamer (quencher-CACCTGGGGGAGTATTGCGGAGGAAGG + anchor), 100 nM annealed; ATP concentration: 500 uM; one replicate
Summary of the method: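 Between each of five buffer/ATP cycles, the flow-cell was stripped with NaOH and re-annealed. Each cycle imaged Cy3-labelled switching-strand clusters, annealed to 100 nM quencher-labelled ATP aptamer on a modified Illumina MiSeq flow-cell, first in selection buffer and then after 15 min with 500 uM ATP at 22 °C. The fluorescence ratio is summed target-cycle over summed buffer-cycle Cy3 intensity per cluster, averaged per switch-domain sequence, with clusters outside 100-1000 RFU excluded.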
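Also: ATP exposure 15 min at 22 °C before imaging.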

Sequence | switch fluorescence ratio
CGCTGCATAT | 3.21
TAGTTTTCGG | 0.962
AATATATCCA | 1.01
TGCGAGGCCT | 1
TCCTAGGAT | 0.965
TGAAAGGGCT | 1.01
ATCTTTCCAA | 1.02
TCGAACACCA | 1.05
TAGGAGCAGA | 0.994
TATGCCACAG | 0.981
AGATGATTTT | 0.978
TGGATATACG | 0.984
TCTAAGGAAC | 0.999
GACAACTGCG | 1
GTTTTCGAAA | 1.05
GTTGCAACTT | 0.973
TAGTATAAAT | 0.997
TAAAGTTGTG | 0.956
GGTTCGCCGC | 0.974
CCTATGTCTA | 1.17
CTTGGGAGGA | 1.02
CGTCTGGAGG | 1.01
TCCTACCCAG | 1.38
AGTAGACACG | 0.936
GCGTAATCTG | 0.995

Sequence | switch fluorescence ratio
GTCGAAAGAA | 1
TTCTGTTCTT | 1.03
TAGCTATTTG | 1.01
CAATATATAA | 0.971
TTGGGCCTGC | 1.02
CTCTCTAGGA | 1.02
AAGATTGTAT | 0.964
ACTCAGGGGT | 1.28
TGAACCTAAT | 0.996
GGGGACCTAA | 1
ACGTTGCTG | 0.963
TGATCCACCG | 1.05
CAGTGGTCAG | 1.01
TCGAATACGT | 1.01
TCCTTGGCGC | 1.23
GCGCTTTCGG | 1.02
TATAGCATAA | 1.07
TGACGACGGC | 1.03
ATCGCAGTAT | 1.13
CCTTCTGTCG | 1.48
CGGACATGGG | 1
AGCGCATTCG | 1.04
GAAATTAGAC | 1.02
CATCAAGCTT | 1.12
TGCATGATAG | 1.01

Sequence | switch fluorescence ratio
CATGAGTGGC | 1.11
CACGCATATT | 1.37
GCGGGTTGGT | 1.02
GCTTGGCATA | 0.997
TATGTTCTTG | 0.972
CCGGAAAGCA | 1.01
ATGTAAGCC | 0.99
GGGCCTATGC | 0.985
AAGTAAACCT | 2.56
GCCACGTAAC | 1.44
CAGTCGCGGT | 1.03
GGACGCGG | 1
TACCAGTCAA | 1.03
AGGATATTAA | 1
GTTTTATCAT | 1.01
AGGGCATCAT | 0.969
TATAGAGTCA | 0.97
CTTACTGATC | 1.06
ATTCGAGAGG | 0.956
CATTCGATGG | 1.02
CGGGCTGGTA | 0.962
GATAGGTAAC | 0.996
GCTAATCCT | 1.1
ATTGTATATT | 1.01
AGGGAAGCAT | 1.11

Sequence | switch fluorescence ratio
AGTGGTCTCG | 0.966
GTTTGGGCGT | 1.03
AAGTAAAAAG | 0.969
ATCGGTACAT | 0.997
GATACGTCGG | 0.998
GCAATAAGTC | 1.54
AGAGGTTTAC | 1.02
TCGGGCGTTT | 0.974
AGAAGGAGGC | 1.02
CCGCTTGTTC | 4.14
TCGCCGCTCT | 1.06
TCCAACTTGG | 1.03
GACTTGGGGG | 1.02
AATCTAAGTT | 0.959
TTATGTTTAT | 1.01
TTCATGTCCG | 0.952
GCCGGCAATC | 1.08
CTTGATCAGC | 1.02
CATTGCCTTA | 0.996
TATAGGATA | 0.968
ACTCGGCGTG | 0.992
GGGGACCGTT | 0.992
CGTAACCTGA | 1.43
GGACTTCGGT | 1.02
TCACAGCGCC | 1.06

Sequence | switch fluorescence ratio
ACACTGAGGA | 1.49
GGGTGGTATC | 0.97
TTTGTCTACC | 0.993
CGGCGTATCG | 0.968
GAATGTCACC | 1.06
GATATGCAGC | 0.988
TAGAAGGTGC | 1.34
CTCGTGGGGG | 0.976
AAAGCGTTTT | 1.04
TCGTAGATGA | 1.04
CAACTAGAGA | 1.01
GCCACTTGAG | 1.02
CTCGACCCCC | 1.5
ATACGTGTCG | 1.02
GGAATCGGAC | 1.12
GACAATTTGT | 0.974
GTAAGCATG | 0.965
TTCTCCTGAA | 1.07
TGAGGGTAAA | 1.02
GATTATTG | 1.03
GGTTTGAGAT | 0.966
AGGTTTGGAG | 1.01
CAAAGAGGGC | 1.14
TCGCAAGGGT | 1.76
CGGTCTGCAA | 6.27

Sequence | switch fluorescence ratio
CGGATAGGGT | 0.954
CTGCTAGGAA | 1.05
ATGAATGACT | 0.997
TGGGGTCGGT | 1.26
AGCGACTTTT | 0.998
ACCATTGGGT | 1.06
AGCAGTCATA | 0.995
CACATTGTA | 1.02
GGCTATTGAA | 1.02
TCTAAAATGG | 1.02
ACGATCTAGG | 0.998
AGCGTCACGC | 1.01
GAAAGTCCTA | 1.03
TCAGGGTATT | 0.979
ATCATCTTGA | 0.999
CGGGTGGTAG | 0.934
TTTTAGAAAC | 1.02
GGTCTCTCTC | 1.02
ATGCGCCTAT | 1.04
GCCAGAGGCG | 0.99
CTTAATTTAC | 1.05
ACAGTTGAAA | 0.996
CGTAGCTATT | 2.67
ATTGAATATA | 1.01
ATAATAATCC | 0.982

Sequence | switch fluorescence ratio
TCTGAGACGG | 0.974
CTGCATTCTT | 1.09
CGATATAGGT | 1.01
TACCTTATAC | 1.24
CGCTGATCAA | 1.01
TTGGATTCCG | 0.967
TTATAATACC | 1.04
CCGGTATCAG | 1
ACGATTAACC | 1.16
TGATTCCGAA | 0.962
CTACATCGA | 0.988
TGGGCCCTAG | 0.99
GACTTCTACG | 0.985
AAAAATACCA | 0.987
CAATGAGCGG | 0.953
CCAAGGGTCC | 1.02
TTTAAAGTAG | 1.08
GACTAGTCTC | 1.02
GTCCTATTTG | 0.936
CACCCTAGCT | 1.08
GTGCTGAACT | 0.981
CCGGCTAGAA | 1.27
CACTTCTTCC | 2.05
TTTTACGTAC | 1.7
GGTTGTATAG | 0.948

Sequence | switch fluorescence ratio
GGATAAGTAG | 1.02
ATGGTTATAG | 1.03
CTTATCGTCC | 1.01
TCAAGCCGTC | 1.08
AATCAAGAAT | 1.04
CAGGCTTAGG | 0.978
CACCTTCCCA | 1.74
CGGATCGAGG | 1.04
GTACGGATTT | 1
GGTACTCCCG | 1.31
TTGCCCTAAT | 1.01
TCTTACCCGG | 1.01
CATACAGGTT | 1.04
CTTACGACTA | 1.16
TAGAAAATAT | 0.97
TTTAGTAGGC | 0.982
TAGTCCGGGT | 0.987
CCCTGTTGTT | 0.954
CAGCGCACTT | 1.08
TTAAACCGTA | 1.04
CGCTTGTCGA | 1.06
TTTGTGGTG | 1.03
ACTCATGGAC | 1.08
AGGAATCAGC | 1
GATAACGGGT | 0.991

— the supplement of paper PMC10126150
